# Reference: PubChem BioAssay AID1454 (National Center for Advancing Translational Sciences (NCATS), 2008)
# Hit rate of the full screen: of about 130,000 compounds, about 550 (0.42%) were called active. Inconclusive results, whose numbers are uncertain, are shown with a selection of clear calls. Calls follow the shape of the dose curve; as a rule, active = well fitted inhibition curve with a large enough effect; inconclusive = small, poorly fitted or top-dose-only effect, or effect the other way; inactive = flat fitted curve, though single readings scatter. Potencies of inconclusive entries are left out as doubtful fits.
# Experiment: qHTS Assay for Inhibitors of the ERK Signaling Pathway using a Homogeneous Screening Assay; Stimulation with EGF; also: nearly all actives have a fitted effect of over 55% in size
# Settings: HEK293-V1b, EGF-stimulated phospho-ERK AlphaScreen
# Method in brief: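 HEK293 cells stably expressing V1b receptor, serum-reduced (1% FBS) overnight, got compound for 30 min at 37C, then 25 nM EGF for 5 min. Lysate phospho-ERK read by AlphaScreen SureFire; AC50 from Hill fits.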
# Potency is read from the fitted curve at half-maximal effect; tags tell the direction and shape of the fitted curve.
row,Structure (SMILES),Potency
1,CC(C)c1ccc(NC(=O)C(c2ccccc2)N2CC(=O)Nc3ccccc32)cc1 (configuration not stated),"inconclusive [inhibitor, partial curve]"
2,CC(C)Cn1nc(NC(=O)c2ccco2)c2cc3ccccc3nc21,"inconclusive [activator, single point]"
3,COc1ccc(C2c3[nH]c4ccccc4c3CCN2Cc2cccn2-c2ncccn2)cc1C (configuration not stated),"inconclusive [inhibitor, partial curve]"
4,O=[N+]([O-])c1cc(C(F)(F)F)ccc1N1CCN(S(=O)(=O)c2ccc3c(c2)CCCC3)CC1,"inconclusive [inhibitor, single point]"
5,O=C(NC(=S)Nc1cccc(CO)c1)c1ccc(-c2ccccc2)cc1,"inconclusive [inhibitor, single point]"
6,COc1ccccc1Oc1c(C)oc2c(CN3CCN(CCO)CC3)c(O)ccc2c1=O,"inconclusive [inhibitor, single point]"
7,O=C(N[C@@H](c1ccccc1)[C@@H]1C[C@H]1C(=O)NCc1ccccc1)OCc1ccccc1,inactive
8,CCN(CC)C(=O)c1sc2c(c1C)c(=O)n(-c1ccc(C)c(C)c1)c(=O)n2CC(=O)NCC1CCCO1 (configuration not stated),"inconclusive [inhibitor, single point]"
9,CC1CCCCN1C(=O)/C=C/c1ccccc1[N+](=O)[O-] (configuration not stated),"inconclusive [activator, partial curve]"
10,CC(C)(C)OC(=O)NCCCC[C@H](NC(=O)c1nc[nH]c1C(=O)NC1CCN(C(=O)OC(C)(C)C)CC1)C(=O)OC(C)(C)C,inactive
11,C=CCn1c(O)c(N=NC(=S)Nc2ccccc2F)c2ccccc21,"inconclusive [inhibitor, partial curve]"
12,CCOC(=O)c1cnc2ccccc2c1Nc1ccc2c(c1)OCCO2,"inconclusive [inhibitor, partial curve]"
13,Cc1ccc(NC(=O)N2CCCC(c3nc(-c4ccc(F)cc4)no3)C2)cc1 (configuration not stated),"inconclusive [inhibitor, single point]"
14,COc1ccccc1C1CCN(Cc2cccc([N+](=O)[O-])c2)CC1,"inconclusive [inhibitor, single point]"
15,N#C/C(=C\c1ccc(N2CCOCC2)o1)C(=O)Nc1ccc(O)cc1,"inconclusive [inhibitor, partial curve]"
16,Oc1c(N=NC(=S)Nc2ccccc2F)c2ccccc2n1Cc1ccccc1F,"inconclusive [inhibitor, partial curve]"
17,N/C(=N\OC(=O)c1cccc2ccccc12)c1ccccn1,"inconclusive [inhibitor, single point]"
18,CCOC(=O)c1sc2nc(C)cc(-c3ccccc3)c2c1N,"inconclusive [activator, single point]"
19,CCOc1ccc(S(=O)(=O)NCc2ccccc2)cc1C(N)=O,"inconclusive [inhibitor, partial curve]"
20,CC1(C)Cc2c(C#N)c(N3CCN(C(=O)c4ccco4)CC3)nc(-c3ccco3)c2CS1,inactive
21,COc1cc(NC(=O)N[C@@H](CCSC)C(=O)O)cc(OC)c1,"inconclusive [activator, full curve, poor fit]"

row,Structure (SMILES),Potency
1,COc1cccc(-n2c(SCC(=O)N3CCCCC3)nc3c([nH]c4ccccc43)c2=O)c1,inactive
2,CC(NC(=O)CCc1nnc(-c2ccc(-c3ccccc3)cc2)o1)c1nc2ccccc2[nH]1 (configuration not stated),inactive
3,COc1ccccc1NC(=O)CC1C(=O)Nc2ccccc2N1C(=O)c1ccccc1 (configuration not stated),"inconclusive [inhibitor, single point]"
4,COc1ccccc1C1C2=C(N=c3s/c(=C/c4cccc(OCC(=O)O)c4)c(=O)n31)c1ccccc1CC2 (configuration not stated),"inconclusive [inhibitor, partial curve]"
5,CC(C)=C1C(=O)C(c2ccccc2)=C2CN3C(=O)N(CCc4ccccc4)C(=O)[C@]3(C)[C@H]21,"inconclusive [inhibitor, partial curve]"
6,CCn1ccnc1CN1CCc2c([nH]c3ccccc23)C1C(C)(C)C (configuration not stated),active: 31.6 µM
7,O=C(Nc1ccc(F)c([N+](=O)[O-])c1)c1ccc2c(c1)OCCO2,"inconclusive [inhibitor, partial curve, poor fit]"
8,CCOC(=O)C1CCCN(C(=O)c2ccc3c(c2)N(Cc2ccccc2)C(=O)c2ccccc2S3=O)C1 (configuration not stated),inactive
9,O=c1c(-c2ccccc2)nc2cnc(N3CCNCC3)nc2n1Cc1cccs1,inactive
10,CC1=NN(c2ccc(Cl)c(C(=O)O)c2)C(=O)/C1=C\c1ccc(-c2ccc(C(=O)O)cc2)o1,inactive
11,O=C(c1cc([N+](=O)[O-])ccc1Cl)N1c2ccccc2Sc2ccccc21,"inconclusive [inhibitor, single point]"
12,COCC(C)n1c(C)cc(C(=O)COC(=O)CCc2nc3ccccc3c(=O)[nH]2)c1C (configuration not stated),"inconclusive [inhibitor, single point]"
13,CCn1c(SCC(=O)N/N=C/c2c[nH]c3ccccc23)nnc1-c1ccc(C(C)(C)C)cc1,"inconclusive [inhibitor, single point]"
14,CCN1CCN(CC(=O)N2CCCC(C(=O)c3ccc(Oc4ccccc4)cc3)C2)CC1 (configuration not stated),"inconclusive [inhibitor, partial curve]"
15,CC(C)=CCC/C(C)=C/CC/C(C)=C/CC/C(C)=C/CC1=C(C)C(=O)c2ccccc2C1=O,"inconclusive [inhibitor, full curve, poor fit]"
16,O=C(O)CN1CCN(Cc2ccc(F)cc2Cl)C1=O,"inconclusive [inhibitor, single point]"
17,Cc1nn(-c2ccccc2)c(C)c1/C=C/C(=O)OCC(=O)Nc1ncc(C(F)(F)F)cc1Cl,inactive
18,OCCCCCNc1ncnc2ccccc12,inactive
19,Cc1cc(C)cc(C(=O)Nc2ccc3[nH]c(=O)[nH]c3c2)c1,"inconclusive [inhibitor, single point]"
20,CCN(CC)CCC(c1ccc(N(C)C)cc1)c1c(O)cc(OC)cc1OC (configuration not stated),"inconclusive [inhibitor, partial curve]"
21,CC1CCN(c2nnc(N)s2)CC1,"inconclusive [inhibitor, partial curve]"

row,Structure (SMILES),Potency
1,O=[N+]([O-])c1cnc(N2CCCCC2)c([N+](=O)[O-])c1,"inconclusive [inhibitor, partial curve]"
2,O=C1NC(=O)/C(=C/C(=O)N2CCOCC2)S1,inactive
3,CCCCOc1cc(C[C@@H]2CNC(=O)N2)ccc1OC,inactive
4,Cc1ccc(-n2nc(C)c3c(C(=O)OCC(=O)N(C)C4CCS(=O)(=O)C4)cc(-c4ccccc4)nc32)cc1 (configuration not stated),"inconclusive [activator, full curve, poor fit]"
5,O=C(Nc1ccc(N2CCOCC2)cc1)c1ccc(-c2ccccc2[N+](=O)[O-])o1,"inconclusive [inhibitor, single point]"
6,COc1ccc(/C=N\Nc2ccc([N+](=O)[O-])cc2[N+](=O)[O-])c(C(=O)O)c1OC,"inconclusive [inhibitor, single point]"
7,CC(=O)C1=C(C)NC2=C(C(=O)c3ccccc32)C1c1ccccc1 (configuration not stated),"inconclusive [inhibitor, partial curve]"
8,CC1OC(Nc2ccc(N=Nc3ccccc3)cc2)C(O)C(O)C1O (configuration not stated),"inconclusive [inhibitor, single point]"
9,COC(=O)[C@@]1(Cc2ccccc2)[C@H]2c3cc(C(=O)N(C)C)n(CCF)c3C[C@H]2CN1C(=O)c1ccccc1,inactive
10,O=C(Nc1ccccc1)C1CC(O)CN1S(=O)(=O)c1ccc([N+](=O)[O-])cc1 (configuration not stated),"inconclusive [inhibitor, single point]"
11,C=CCN1C(=O)/C(=C\c2ccc(Oc3nc(N4CCOCC4)nc(N4CCOCC4)n3)c(OC)c2)SC1=S,"inconclusive [inhibitor, partial curve]"
12,CCOc1ccc(/C=C2/SC(=O)NC2=S)cc1,"inconclusive [inhibitor, single point]"
13,N=c1oc2ccc3ccccc3c2cc1-c1nc(-c2ccccc2)cs1,"inconclusive [activator, single point]"
14,COCCC1CCCCN1C(=O)c1cccc(OC2CCN(C3CCCC3)CC2)c1 (configuration not stated),"inconclusive [inhibitor, single point]"
15,CC(=O)c1cccc(NC(=O)CSc2ccc(-c3ccc4c(c3)OCO4)nn2)c1,"inconclusive [inhibitor, single point]"
16,Cc1cc(Br)c(Cl)cc1NC(=O)CN1C(=O)C2C3CC(c4ccccc4)C(C3)C2C1=O (configuration not stated),"inconclusive [inhibitor, single point]"
17,Cc1ccc(/C=N/Nc2cc(C)nc(NCc3ccccc3)n2)cc1,"inconclusive [inhibitor, single point]"
18,Cc1ccn2c(Nc3ccc4c(c3)OCO4)c(-c3ccc(O)cc3)nc2c1,"inconclusive [inhibitor, single point]"
19,CCOC(=O)c1c(C)[nH]c(N=Nc2cccc(OC)c2)c1C,"inconclusive [inhibitor, single point]"
20,CN1/C(=C\C(=O)COC(=O)c2ccccc2O)C(C)(C)c2ccccc21,"inconclusive [inhibitor, single point]"
